# Read counts are not given, so values of variants with three or more changes are uncertain.
# B1: LINE1-mini (parent)
# chain: GGCAGAGCUCAACACAGCGUGGCAAAGUGGCUGUGGCUAGACUGCC
# Variants of: B1
# Assay: self-cleavage, relative activity (ratio to wild type); higher = more cleavage; in vitro, sequencing; the parent is a self-cleaving ribozyme
row,Variant,self-cleavage
1,G17C G22A C42G,0.02
2,G17C G22C U32A,0.03
3,G17C G27A A41C C42A,0.02
4,G17C G27A U32G G33C,0.05
5,G17C G27C G35A A39C,0.04
6,G17C G27C U34A,0.04
7,G17C G27U G33A C46G,0.01
8,G17C G27U U34G,0.09
9,G17C G29A G30A U34C,0.15
10,G17C G29C G30C U32A,0.02
11,G17C G33U U38G C45G C46G,0.02
12,G17C G35A A39U U43C,0.01
13,G17C G40U C46A,0.11
14,G17C U20A C23A U28G,0.09
15,G17C U20C G22C A26C G29U,0.16
16,G17C U20G G29A G44A,0.04
17,G17C U28G G29U C31A G36C U43A,0.05
18,G17C U34G U43A,0.02
19,G17C U38A U43C,0.01
20,G17U A24C A39U,0.19
21,G17U A24C U34G,0.05
22,G17U A24G A26G G27C C37G U43A,0.01
23,G17U A24U A25U C31G,1.22
24,G17U A24U A26U U43A,0.09

row,Variant,self-cleavage
1,G17U A25C C42A,0.04
2,G17U A25C G33A C37U,0.06
3,G17U A25U C37A,0.07
4,G17U A26G C46G,0.05
5,G17U A26G G40A A41U,0.03
6,G17U A41G C46A,0.13
7,G17U C18A G21U U43C,0.01
8,G17U C18A G22C,1.17
9,G17U C18A G35A C42U G44A C45U,0.01
10,G17U C18G A24U,0.06
11,G17U C18U G21C A26U U28A U32G,0.06
12,G17U C18U G22U C31U,0.02
13,G17U C23A A24U A25C A39U,0.05
14,G17U C23A A25U,0.07
15,G17U C23A C31A,0.21
16,G17U C23A C45U,0.09
17,G17U C23A U28G U34A,0.04
18,G17U C23A U32A,0.05
19,G17U C23G U32A G33A,0.05
20,G17U C31A C37U,0.01
21,G17U C31A C42U U43A,0.09
22,G17U C31A U32G,0.06
23,G17U C31A U34A G36C,0.02
24,G17U C31A U34C G36U A39U,0.03

row,Variant,self-cleavage
1,G17U C31U U32A U34G G36A C42A,0.01
2,G17U C37G C45A C46A,0.02
3,G17U C37U A41C,0.02
4,G17U G19A G44A,0.09
5,G17U G19C U32A,0.09
6,G17U G19U G29U A41G,0.03
7,G17U G19U U28C U34G,0.06
8,G17U G19U U34C,0.02
9,G17U G21A G40U C46A,0.04
10,G17U G21U U34G G35U G40U,0.03
11,G17U G22A A24C G33U G40U,0.09
12,G17U G22A C46U,0.11
13,G17U G22C U28A,0.14
14,G17U G27A C31A C45U,0.78
15,G17U G27U C45A,0.03
16,G17U G27U G29A,0.28
17,G17U G27U U34A,0.03
18,G17U G29A U32C,0.04
19,G17U G29C A41U,0.29
20,G17U G29U U32A,0.1
21,G17U G30A G44C C46U,0.01
22,G17U G30C C45G C46G,0.01
23,G17U G30U G35A A41C,0.02
24,G17U G35A U38A A41G,0.02

row,Variant,self-cleavage
1,G17U G36A C37A G44U,0.03
2,G17U G40A A41U,0.35
3,G17U G40U U43A,0.18
4,G17U G44A C46U,0.04
5,G17U U20A C31U,0.08
6,G17U U20A C42U,0.02
7,G17U U20A G21C U28G C31U,0.08
8,G17U U20A G27C G30A G40C C45U,0
9,G17U U20C A25C,0.07
10,G17U U20C A25U,0.35
11,G17U U20C G29U,0.39
12,G17U U20G U38A,0.04
13,G17U U20G U43A,0.17
14,G17U U28A A39G,0.02
15,G17U U28A G30C C37U C42U,0.15
16,G17U U28C G30A G35A,0.07
17,G17U U32A U38C,0.02
18,G17U U34A G35U,0.06
19,G17U U34C A39U C46A,0.05
20,G17U U34G A41C,0.06
21,G17U U38A C45U,0.17
22,C18A A24C C42G,0
23,C18A A24C G33A U34C C42A,0
24,C18A A24C G33U U38G A39C,0.02

row,Variant,self-cleavage
1,C18A A24G A25G,0.43
2,C18A A24G A39G C45A,0.11
3,C18A A24G A41U,0.15
4,C18A A24G U28A U32C,0.04
5,C18A A24G U28C,0.53
6,C18A A24U A39U G40A A41G C45U,0.01
7,C18A A24U C37A A39C U43A,0.04
8,C18A A25C C31G A41C,0.02
9,C18A A25C U28C,0.1
10,C18A A25C U38C,0.11
11,C18A A25U G30A C31U G33C C42U,0.04
12,C18A A26C G35A G40U G44A,0.01
13,C18A A26G G36A,0.17
14,C18A A26G U28G U32C G44C,0.02
15,C18A A26U A41G,0.09
16,C18A A26U G35U C42U,0.07
17,C18A A26U G36A C37U,0.1
18,C18A C23A A25U G30U U34A A41C G44A,0
19,C18A C23A A26U,0.38
20,C18A C23A G29U G33A,0.02
21,C18A C23G G29U G30A,1.24
22,C18A C23U G33A,0.02
23,C18A C37A G40A,0
24,C18A C45U C46G,0.03

row,Variant,self-cleavage
1,C18A G19A A26U C42A,0.08
2,C18A G19A C23A A24U G44A,0.05
3,C18A G19U A24C,0.56
4,C18A G19U G33U C37G,0.02
5,C18A G19U G35A,0.04
6,C18A G19U U28G,0.22
7,C18A G21A G40A C42G,0.16
8,C18A G21A U28A G33U G36C,0.02
9,C18A G21C C46U,0.18
10,C18A G21U C37G G44A C46U,0.02
11,C18A G21U G33C,0.01
12,C18A G21U G35A,0.02
13,C18A G21U U28C G40A,0.08
14,C18A G21U U34C G44U,0.02
15,C18A G22A U32C U34C G36A,0
16,C18A G22C C46G,0.43
17,C18A G22U A24U A26U,1.62
18,C18A G22U A25U G30C C31U U38C G40U,0.05
19,C18A G22U G35U C42G,0.01
20,C18A G22U G36A,0.1
21,C18A G22U U32C A39G G44C,0.01
22,C18A G27C G33U G36C C46U,0.01
23,C18A G27C U38C C46G,0
24,C18A G27U G30U,1.79

row,Variant,self-cleavage
1,C18A G27U U38A,2.62
2,C18A G29A C37A,0.05
3,C18A G29A C37G C46A,0.08
4,C18A G29A U34A U38C,0.04
5,C18A G29U C31A,0.16
6,C18A G29U G40U,0.04
7,C18A G33C C45A,0
8,C18A G33U C42G,0.02
9,C18A G33U C46A,0.02
10,C18A G35A G44U,0.01
11,C18A G35C G36U C45A,0.01
12,C18A G35U A41C,0.06
13,C18A G35U C37U,0.06
14,C18A U20A A24G,0.12
15,C18A U20A G21U,0.17
16,C18A U20C G35C,0.01
17,C18A U20G C23A C31U U38A C46G,0.01
18,C18A U20G U34A G35A,0.01
19,C18A U28A G33U,0.04
20,C18A U28C C42U,0.11
21,C18A U28G U43C,0.03
22,C18A U32A G44A,0.03
23,C18A U32A U38G C46A,0.02

# Reference: the RNAGym collection of RNA variant scans (doi:10.7554/elife.90254)
